In a compilation of properties of binary mixtures (doi:10.1080/00986445.2015.1114477):
The densities may have been worked out from excess volumes.

Experiment: xn = mol fraction of the nth substance listed
Conditions: 100 kPa

CN1CCCC1=O + CCCCCCCCn1cc[n+](C)c1.[Cl-]
x1 = 1
Conditions	mass density [kg/m3]
288.15 K	1037
298.15 K	1028.1
303.15 K	1023.6
308.15 K	1019.1
313.15 K	1014.7
323.15 K	1005.8
328.15 K	1001.3
333.15 K	996.8

CN1CCN(C)C1=O + CCCCCCCCn1cc[n+](C)c1.[Cl-]
mass density [kg/m3]
Conditions	288.15 K	293.15 K	298.15 K	303.15 K	308.15 K	313.15 K	318.25 K	323.15 K	328.15 K	333.15 K
x2 = 0	1060.8	1056.3	1051.9	1047.5	1043.1	1038.7	–	1029.9	1025.5	1021.1
x2 = 0.105	1055.7	1051.6	1047.6	1043.6	1039.5	1035.5	1031.5	1027.5	–	1019.5
x2 = 0.2056	1049.5	1045.7	1041.9	–	1034.3	1030.5	1026.7	1023	1019.2	1015.5
x2 = 0.3018	–	1040.5	1036.8	1033.2	1029.6	1026	–	1018.8	1015.2	1011.7
x2 = 0.3991	1039.2	–	1032.1	1028.6	1025.1	1021.6	1018.2	1014.8	–	1007.9
x2 = 0.4964	–	1031.2	1027.8	–	1021	–	1014.2	–	1007.6	1004.3
x2 = 0.6016	1029.9	1026.7	1023.4	1020.2	1016.9	1013.6	1010.3	1007.1	1003.9	1000.7
x2 = 0.7007	1025.9	1022.7	1019.5	1016.4	1013.2	1010.1	1007	1003.8	1000.6	–
x2 = 0.7994	1022.2	–	1016	1013	–	–	1003.8	1000.8	997.7	994.7
x2 = 0.8988	1018.9	1015.8	1012.8	1009.8	1006.8	1003.9	1000.9	997.9	995	–

CN1CCCC1=O + CCCCCC[n+]1ccn(C)c1.[Cl-]
x1 = 1
Conditions	mass density [kg/m3]
288.15 K	1037
293.15 K	1032.5
298.15 K	1028.1
303.15 K	1023.6
308.15 K	1019.1
313.15 K	1014.7
318.25 K	1010.2
323.15 K	1005.8
328.15 K	1001.3
333.15 K	996.8

CN1CCN(C)C1=O + CCCCCC[n+]1ccn(C)c1.[Cl-]
mass density [kg/m3]
Conditions	288.15 K	293.15 K	298.15 K	303.15 K	308.15 K	313.15 K	318.25 K	323.15 K	328.15 K	333.15 K
x2 = 0	–	1056.3	1051.9	1047.5	–	1038.7	1034.3	1029.9	–	1021.1
x2 = 0.1007	–	1058.5	1054.4	1050.4	1046.3	1042.3	–	–	1030.2	1026.2
x2 = 0.1999	1062.1	1058.2	1054.4	–	–	1043	1039.2	1035.4	1031.6	1027.8
x2 = 0.2985	1060.9	1057.2	1053.6	1049.9	1046.3	1042.7	1039.1	–	1032	–
x2 = 0.3856	1059.6	1056.1	1052.5	1049	–	1042.1	–	1035.2	1031.8	1028.4
x2 = 0.4985	1057.2	1053.8	1050.5	1047.1	1043.8	1040.5	1037.2	–	1030.6	1027.3
x2 = 0.6069	1054.4	1051.2	1048	1044.8	1041.6	1038.4	1035.2	1032.1	1028.9	1025.7
x2 = 0.6969	1052.2	1049	1045.9	1042.8	1039.7	1036.6	–	1030.4	1027.3	1024.2
x2 = 0.7981	1049.5	1046.5	1043.4	1040.4	1037.3	1034.3	1031.4	1028.4	1025.4	1022.4
x2 = 0.8903	1047.2	–	1041.2	–	1035.3	1032.3	1029.4	1026.5	–	1020.6

CCCCCCCCn1cc[n+](C)c1.[Cl-] + CN1CCCC1=O
mass density [kg/m3]
Conditions	288.15 K	293.15 K	298.15 K	303.15 K	308.15 K	313.15 K	318.25 K	323.15 K	328.15 K	333.15 K
x2 = 0	1015.3	1012.3	1009.4	–	1003.5	1000.6	997.7	994.8	991.9	989
x2 = 0.1041	1017	1013.9	1010.9	1007.9	1004.9	1001.9	999	996	993	990.1
x2 = 0.21	1019.1	1016.1	1013	1009.9	1006.8	1003.8	–	–	–	991.6
x2 = 0.3221	1021.5	–	–	1012	1008.9	1005.7	1002.5	999.3	996.2	993
x2 = 0.43	1024.1	1020.8	1017.5	1014.2	1010.9	1007.6	1004.3	1001	997.8	994.5
x2 = 0.5321	1026.5	1023.1	1019.7	1016.2	1012.8	1009.4	–	1002.7	999.3	996
x2 = 0.6343	1029	1025.5	1021.9	1018.4	1014.8	1011.3	1007.8	1004.3	1000.8	997.4
x2 = 0.7195	1031.2	1027.6	1023.9	1020.2	–	1012.9	1009.3	1005.6	1002	998.4
x2 = 0.8143	1033.7	1029.9	1026	1022.2	1018.3	1014.5	–	–	1003	999.2
x2 = 0.9085	1036.1	1032	1027.9	1023.8	–	1015.6	–	1007.4	1003.3	999.2

CCCCCC[n+]1ccn(C)c1.[Cl-] + CN1CCCC1=O
mass density [kg/m3]
Conditions	288.15 K	293.15 K	298.15 K	303.15 K	308.15 K	313.15 K	318.25 K	323.15 K	328.15 K	333.15 K
x2 = 0	–	1041.6	1038.6	1035.7	1032.8	1029.9	1027.1	–	1021.3	–
x2 = 0.11	1045.2	1042.2	1039.2	1036.2	1033.2	–	–	1024.3	1021.3	1018.3
x2 = 0.2211	1045.9	1042.8	–	1036.6	–	1030.4	–	1024.2	1021.2	1018.1
x2 = 0.3181	1046.5	1043.3	–	1036.9	1033.7	1030.5	1027.3	–	1020.9	1017.8
x2 = 0.4223	1046.8	–	1040.2	–	1033.5	1030.2	–	–	–	1017.1
x2 = 0.5271	1046.9	1043.4	–	1036.4	1033	1029.6	1026.1	1022.8	1019.4	1016
x2 = 0.6327	1046.5	1042.9	1039.3	1035.7	1032.1	–	1025	1021.5	1018	1014.5
x2 = 0.718	1045.8	1042.1	–	1034.7	–	–	1023.6	1019.9	–	1012.6
x2 = 0.8139	1044.5	1040.6	–	1032.8	–	1025	1021.2	1017.3	1013.4	1009.6
x2 = 0.9083	1042.2	1038	1033.9	1029.7	1025.6	–	1017.4	1013.2	1009.1	–

CCCCCCCCn1cc[n+](C)c1.[Cl-] + CN1CCN(C)C1=O
x1 = 1
Conditions	mass density [kg/m3]
288.15 K	1015.3
293.15 K	1012.3
298.15 K	1009.4
303.15 K	1006.5
308.15 K	1003.5
313.15 K	1000.6
323.15 K	994.8
328.15 K	991.9
333.15 K	989

CCCCCC[n+]1ccn(C)c1.[Cl-] + CN1CCN(C)C1=O
x1 = 1
Conditions	mass density [kg/m3]
288.15 K	1044.5
293.15 K	1041.6
298.15 K	1038.6
303.15 K	1035.7
308.15 K	1032.8
318.25 K	1027.1
323.15 K	1024.2
328.15 K	1021.3
